# From PubChem BioAssay AID686979 (National Center for Advancing Translational Sciences (NCATS), 2013)
# The whole screen tested about 420,000 compounds, of which about 50,000 (12%) were called active. Calls come from the whole dose curve; as a rule, active = well fitted inhibition curve with a large enough effect; inconclusive = small, poorly fitted or top-dose-only effect; inactive = flat fitted curve, though single readings scatter. Inconclusive results, whose numbers are uncertain, are shown. No potency is given beside an inconclusive call; the fits are too rough.
# Assay: qHTS for Inhibitors of human tyrosyl-DNA phosphodiesterase 1 (TDP1): qHTS in cells in presence of CPT; note: nearly all actives have a fitted effect of over 55% in size
# Details: chicken DT40 Tdp1-/-;hTDP1 cells + 20 nM CPT, ATP luminescence, 48 h; series mostly up to 46.2 µM
# Summary of the method: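 Cell growth measured by CellTiter-Glo luminescence after a minimum 48 h, 37 C compound exposure with 20 nM CPT in Tdp1-knockout DT40 cells stably expressing hTDP1, seeded 400/well; qHTS titration format.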
# Potency is the fitted concentration of half-maximal effect; tags give direction and shape of the fitted curve.
row,Compound,Potency
1,O=C1NN(c2ccc(F)c(Cl)c2)C(=O)/C1=C\c1cccc(OC(=O)c2cccs2)c1,"inconclusive [inhibitor, single point]"
